From the supplement of paper PMC3334620 come the findings set out here.

Whole data set: some 33,000 sequences, median “E-score (-0.5 to 0.5)” near -0.016, cut for the highest 2% near 0.32. The list shows a part of the results.

This assay concerns the target T1, Stp1 (UniProt B3LFK1).
T1 sequence: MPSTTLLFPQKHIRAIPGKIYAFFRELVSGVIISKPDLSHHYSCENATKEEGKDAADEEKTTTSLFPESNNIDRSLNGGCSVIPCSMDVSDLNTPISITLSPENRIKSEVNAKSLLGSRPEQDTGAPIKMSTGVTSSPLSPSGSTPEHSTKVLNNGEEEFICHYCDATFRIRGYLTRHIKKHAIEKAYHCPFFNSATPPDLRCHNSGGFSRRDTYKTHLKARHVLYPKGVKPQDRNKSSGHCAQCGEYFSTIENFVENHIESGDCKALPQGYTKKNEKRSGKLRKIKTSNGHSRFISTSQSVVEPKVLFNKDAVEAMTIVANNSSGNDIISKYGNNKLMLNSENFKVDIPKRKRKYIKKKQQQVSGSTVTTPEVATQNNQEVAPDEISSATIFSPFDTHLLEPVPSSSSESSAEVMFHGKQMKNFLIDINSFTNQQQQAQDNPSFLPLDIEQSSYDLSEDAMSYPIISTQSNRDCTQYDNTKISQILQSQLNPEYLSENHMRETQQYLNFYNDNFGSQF
The assay is described as follows: PBM E-score (8-mer binding enrichment) (E-score (-0.5 to 0.5)); higher = stronger / more preferred TF binding; most listed sequences are background and not binding sites. The conditions noted are these: protein concentration: 200 nM; construct: GST-full length. Here is the method:
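Universal 'all 10-mer' protein binding microarrays (Agilent AMADID 015681) probed with GST-tagged S. cerevisiae TFs (full-length or DBD) made by in vitro transcription/translation (PURExpress), about 100-200 nM. Bound TF was detected with fluorescent anti-GST. Each ungapped 8-mer (which stands for itself and its reverse complement) is scored by the PBM enrichment score (E-score), a modified Wilcoxon-Mann-Whitney statistic from -0.5 to +0.5, computed with the Universal PBM Analysis Suite. Scale: above 0.35 generally sequence-specific binding.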
As for GACACATC, the “PBM E-score” value is -0.088.

CTCTAAAG: the “PBM E-score” value is -0.0701.

Take AGCTCATG: the “PBM E-score” value is -0.18. The result for ACTCATAA reads -0.0106; that for ACGCAACC, -0.0424; that for CGGAGTCC, -0.0203. On to CGCGGCTA, for which the “PBM E-score” value turned out to be 0.397. Regarding AAGGGCAC, the “PBM E-score” value came out at 0.314.

Turning to GCATTGCA, the “PBM E-score” value came to 0.147. The result for ACGCGGTC reads -0.0102. Consider CACTGAAC, for which the “PBM E-score” value stood at 0.109. The result for ATCCCTAG reads -0.0475; that for ACCACCTA, -0.249; that for CTGCCCCC, -0.327. On to AAAGGTAG, for which the “PBM E-score” value was -0.156.

Turning to CTGACGCC, the “PBM E-score” value is 0.0864. The result for CCTCTTCG reads 0.0316; that for ATGCCCTA, 0.168. The result for CTTGCCTC reads 0.0687. The result for CCCACGAG reads -0.267; that for AGACTGTC, -0.207; that for CCGGCTAC, 0.0509. With ACGTGGAG, the “PBM E-score” value is -0.218. The result for CCACTAGA reads -0.0989; that for AGTATATA, 0.363; that for GCGATGGA, 0.00754. The result for AGGACTCC reads -0.375. The result for AGCTTGCC reads -0.0811. For the sequence AACGAGCC, the “PBM E-score” value was 0.133. The result for CGCCCCAC reads 0.179. For ATACTGAC, the “PBM E-score” value worked out at 0.112.

For TCGAACGA, the “PBM E-score” value is 0.0236.

GAGGTATC: the “PBM E-score” value is -0.0217.

As to CGGTGTAC, the “PBM E-score” value was -0.0565. The result for CATAAATA reads 0.184. Consider CTGAAAAC, for which the “PBM E-score” value was 0.171. The result for CCAAATAG reads 0.0384. The result for ACTCCTTC reads -0.245; that for AGCTAGAG, -0.00782; that for CGGCTTTC, 0.196. On to ACCCCTCT, for which the “PBM E-score” value was -0.267. As to ACTGTCAG, the “PBM E-score” value was -0.00332.

Take GTTAGGCA: the “PBM E-score” value turned out to be 0.101. The result for AATTACTC reads 0.144; that for CGCAATCC, -0.0128.

As to GAGGTCTA, the “PBM E-score” value was -0.139.

As for ACCGTGTG, the “PBM E-score” value came out at 0.151. The result for AACATCGT reads -0.00324; that for CGTTGGCA, 0.233; that for GATGCTGC, -0.0227. The result for ACGGATTG reads 0.113; that for AAAGGGTG, -0.123. The result for CCTACCGA reads -0.153. For CGGGTCGA, the “PBM E-score” value is -0.207. ACATGTGC: the “PBM E-score” value was found to be 0.142. In the case of GGGGTTGA, the “PBM E-score” value is -0.167.

Regarding GATAAACC, the “PBM E-score” value stood at 0.172. The result for AACTACCG reads -0.103; that for GACCTCTC, -0.186. The result for CTCGGAAG reads -0.0743; that for CTAGAGAC, -0.325.

Turning to CCAGTCCC, the “PBM E-score” value is -0.246. The result for ATTTTCAC reads 0.213. TGCCTCCA: the “PBM E-score” value was -0.281. The result for CAGCGTGC reads 0.00112. The result for CTAGCGAG reads -0.227.

For AGGTAAGA, the “PBM E-score” value is -0.0903.

ATCAACAT: the “PBM E-score” value stood at 0.0155. The result for AAGCCAAC reads 0.146; that for AACCAATG, -0.0152.

With GCGTATGA, the “PBM E-score” value was determined as 0.09.

For the sequence AATTATAG, the “PBM E-score” value was determined as 0.0636. The result for CAATTCAG reads -0.175.

In the case of GTCTAAAC, the “PBM E-score” value was 0.0396. Take ACGGGCAA: the “PBM E-score” value amounted to 0.0357. The result for CAGACCCG reads -0.0255; that for ATCAGTAC, 0.023; that for CTACTATC, 0.125. The result for AAGAACGT reads 0.0579. The result for CCCCATGC reads -0.0589; that for TTCGTCAA, -0.079; that for TTCATCAA, 0.0209.

TATTCTAA: the “PBM E-score” value was found to be 0.0429. On to TAGCATGA, for which the “PBM E-score” value is -0.11. As for ATTCAATA, the “PBM E-score” value was 0.23. The result for CGATCGAC reads 0.0877; that for ACAGGAAT, -0.0486. The result for GCGGCTAA reads 0.304; that for GACCAGGA, -0.165; that for TGGGTGAA, 0.154.

Take CGAATATC: the “PBM E-score” value was -0.0869. The result for CACCTGAG reads -0.123; that for AGGATAAG, -0.123.

For the sequence TCGTTAAA, the “PBM E-score” value was -0.0183. The result for CACATCTC reads -0.0379.

As for TCATCAAA, the “PBM E-score” value came to 0.137.

In the case of TCGATAGA, the “PBM E-score” value is 0.1. Consider CATTAGTA, for which the “PBM E-score” value was -0.0313. For GAGCAATA, the “PBM E-score” value is -0.0681. Turning to AGCACTTC, the “PBM E-score” value is -0.208. The result for AAGTGGGG reads -0.355; that for ACCCATCC, -0.189.

CCTTCCGC: the “PBM E-score” value was -0.0417. The result for GAATGACC reads -0.102; that for ACGCCTAC, -0.0656; that for AATAGTTA, 0.164. The result for AGAGCCCG reads -0.0895; that for ATTAACAA, 0.249. The result for GAACACCA reads -0.133; that for CCTCCAAG, -0.0795.
